# Data published in PubChem BioAssay AID624417 (National Center for Advancing Translational Sciences (NCATS), 2012).
# Among all 410,000 compounds or so, about 6,400 (1.6%) were called active. The inconclusive results got no clear call from the source; some entries with a clear call stand among them for comparison. The call rests on the fitted dose curve; in most records, active means well fitted inhibition curve with a large enough effect; inconclusive means small, poorly fitted or top-dose-only effect; inactive means no such curve, though single readings can be large or run the other way. Potencies of inconclusive entries are left out as doubtful fits.
# Target: Glucagon-like peptide 1 receptor (Homo sapiens) (UniProt P43220)
# UniProt P43220, sequence (P43220 whole entry, looked up): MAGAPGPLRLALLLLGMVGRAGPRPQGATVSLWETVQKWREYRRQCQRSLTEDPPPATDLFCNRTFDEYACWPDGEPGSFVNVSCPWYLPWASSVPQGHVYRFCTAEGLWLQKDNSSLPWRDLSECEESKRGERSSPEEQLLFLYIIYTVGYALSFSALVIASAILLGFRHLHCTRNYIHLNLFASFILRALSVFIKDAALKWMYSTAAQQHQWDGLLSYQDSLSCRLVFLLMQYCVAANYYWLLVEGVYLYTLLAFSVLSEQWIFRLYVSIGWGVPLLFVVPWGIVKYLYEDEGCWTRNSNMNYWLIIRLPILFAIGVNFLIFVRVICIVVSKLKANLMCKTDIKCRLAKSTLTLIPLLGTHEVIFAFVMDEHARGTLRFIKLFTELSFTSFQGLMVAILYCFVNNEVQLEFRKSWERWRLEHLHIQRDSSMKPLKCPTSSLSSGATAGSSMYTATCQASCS
# Test: qHTS of GLP-1 Receptor Inverse Agonists (Inhibition Mode); further: nearly all actives have a fitted effect of over 55% in size
# Conditions: HEK293 GLP-1R CRE-luciferase, luminescence, 24 h, GLP-1R form is constitutively active; activity change, negative = inhibition: at 38.3 µM (top of the series) unless noted
# How it was run: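 Readout was luciferase luminescence, measured 12 min after detection reagent at room temperature. Beforehand, GLP-1R reporter HEK293 cells had sat 12 h, then received compounds for 24 hr at 37 deg C.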
# On the % scale 0 is the no-effect control and ±100 the full control effect; potency means the concentration at half of the fitted maximal effect; tags describe the fitted curve by direction and shape.
Structure (SMILES),Potency,"activity change, negative = inhibition"
CSc1nc2sc3c(c2c(=O)n1-c1ccccc1)CCC(C(C)(C)C)C3 (stereo not drawn),"inconclusive [inhibitor, full curve, poor fit]",
Cc1cc(C)cc(NC(=O)CCCc2nc(-c3ccccc3Cl)no2)c1,"inconclusive [inhibitor, single point]",
CCCOC(=O)C1=C(C)NC(=O)NC1c1cc2c(cc1Br)OCO2 (stereo not drawn),"inconclusive [inhibitor, single point]",
Cc1nn(C)c(C)c1CNC(=O)Nc1cccc(Cl)c1,,inactive: -4.34%
O=C(c1ccco1)N1N=C(c2ccc(Br)cc2)CC1(O)C(F)(F)F (stereo not drawn),"inconclusive [inhibitor, single point]",
COC(=O)[C@]12CCCCC=C1N(CCc1ccc(OC)c(OC)c1)C(=O)[C@H](CC(=O)N1CCCCC1)C2,,inactive: -21.7%
CCOC(=O)CSc1nnc(CNc2ccccc2Cl)n1-c1ccccc1,"inconclusive [inhibitor, single point]",
S=C(NCc1ccco1)N1CCN(c2nc(-c3ccccc3)cs2)CC1,"inconclusive [inhibitor, single point]",
N#Cc1cc([N+](=O)[O-])ccc1Oc1cccc(/C=N/NC(=O)c2cccc(Cl)c2)c1,"inconclusive [inhibitor, partial curve, poor fit]",
CC[N+]1(C)CCC(O)(/C=C/c2ccccc2)C(C(=O)/C=C/c2ccccc2)C1 (stereo not drawn),active: 10 µM,
CCOC(=O)c1sc2nc(C)nc(NCc3ccccc3)c2c1C,"inconclusive [inhibitor, single point]",
CCc1nc2ccc(C(=O)N(CC)CCN(C)C)cn2c1N(C)C(=O)c1cccc(OC)c1,,inactive: 4.93%
CCOc1ccccc1CN1CCC(n2nccc2NC(=O)CCCc2ccccc2)CC1,"inconclusive [inhibitor, partial curve, poor fit]",
OC(c1ccccc1)c1nc(-c2cc3ccccc3o2)cs1 (stereo not drawn),"inconclusive [inhibitor, single point]",
CC1(C)CC(=O)c2cc(C(=O)NCc3ccco3)c(=O)n(-c3ccccc3)c2C1,,inactive: -28.7%
COC(=O)c1c(N2C(=O)[C@H]3[C@@H](C2=O)[C@]2(C(=O)Nc4c(C)cc(C)cc42)N2CCC[C@@H]32)sc(C)c1C,"inconclusive [inhibitor, single point]",
CSCC[C@H](NC(=O)c1ccc(Cl)c([N+](=O)[O-])c1)c1nc2ccccc2[nH]1,,inactive: 0%
CC1(C)C(c2ccccc2)=NC(c2ccc(Br)cc2)N1O (stereo not drawn),"inconclusive [inhibitor, full curve, poor fit]",
